Screen size: about 120,000 compounds; about 5,300 (4.4%) were called active. This list was built around the results that the source calls inconclusive (neither active nor inactive); the mix of calls is not that of the screen. Calls come from the whole dose curve; as a rule, active = well fitted inhibition curve with a large enough effect; inconclusive = small, poorly fitted or top-dose-only effect; inactive = no such curve, though single readings can be large or run the other way. A potency beside an inconclusive call is a rough fit, not a confirmed value.
Test: qHTS Primary assay for Inhibitors of Plasmodium falciparum Dd2 growth in vitro; note: nearly all actives have a fitted effect of over 65% in size;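 for activity, negative = inhibition: plate controls were DMSO vehicle for no effect and reference drug for full effect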
Conditions: P. falciparum Dd2 growth, SYBR Green, 72 h; activity, negative = inhibition: at 28.9 µM (top of the series) unless noted; series mostly up to 28.9 µM
Summary of the method: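 Readout: SYBR Green fluorescence, 485 nm excitation, 535 nm emission, after ~16 h lysis at 37C. Before that, Dd2-infected red cells (2.5% hematocrit) grew 72 h with compound, 29 uM top final concentration.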
Potency is the fitted concentration of half-maximal effect; tags give direction and shape of the fitted curve.

Structure (SMILES) | Potency | outcome | activity, negative = inhibition
COc1ccc(OC)c(-c2noc(CSc3nnc(-c4ccccc4)n3-c3ccccc3)n2)c1 | inconclusive: 7.08 µM [inhibitor, partial curve, poor fit] | – | –
COCCNC(=O)[C@H]1C[C@H](Oc2ccccc2)CN1C(=O)Nc1cccc(F)c1 | inconclusive: 17.8 µM [inhibitor, single point] | – | –
C[S+](=O)([O-])N1CC2(CCN(Cc3c[nH]c4ccccc34)CC2)Cc2ccccc21 | active: 11.2 µM | – | –
CN(CC(O)COc1cccc(CNCCOc2ccccc2)c1)C1CCCCC1 (centres undefined) | active: 4.47 µM | – | –
COc1cccc(-c2ccccc2CN)c1 | inconclusive: 6.31 µM [inhibitor, partial curve] | – | –
CCOc1ccc(C(=O)N2C[C@@H](COC)[C@H](c3ccncc3)C2)cc1 | – | inactive | –
O=C(Nc1cccc(C(F)(F)F)c1)N[C@H]1CO[C@H]2[C@@H]1OC[C@H]2O | – | inactive [at 44.1 µM] | –
O=C1NC2(CN(C(=O)c3ccccc3)C2)Oc2ccccc21 | inconclusive: 15.8 µM [inhibitor, single point] | – | –
O=C(Nc1cccn2nc(C3CCC3)nc12)c1cccc(F)c1 | inconclusive: 17.8 µM [inhibitor, single point] | – | –
CCOC(=O)c1ccccc1NC(=O)c1cn(CC(C)C)c(=O)c2cc(OC)c(OC)cc12 | inconclusive: 1.78 µM [inhibitor, full curve, poor fit] | – | –
COC(=O)C(=O)N1CC[C@@H]2[C@H]1C(=O)N(C(C)C)C(=O)N2Cc1cccc(F)c1 | – | – | inactive: 15.5% [at 44.1 µM]
COCCOc1ccc2c(n1)CCN(C(=O)C1(c3ccc(OC)cc3)CC1)C2 | active: 7.08 µM | – | –
CN(C)CC(O)c1cc2n(n1)CCN(C(=O)CCc1ccc(=O)[nH]n1)C2 (centres undefined) | – | – | inactive: 8.44%
COc1ccc(Cl)cc1NC(=O)CSc1nc(=O)n(Cc2ccco2)c2c1CCC2 | inconclusive: 12.6 µM [inhibitor, single point] | – | –
COc1ccc(OC)c(NC(=O)Cn2cc(C(=O)c3ccccc3)c3ccccc32)c1 | – | inactive | –
CC(C)CN1C(=O)c2ccccc2C(C(=O)Nc2ccncc2)C12CCCC2 (centres undefined) | inconclusive: 3.16 µM [inhibitor, partial curve, poor fit] | – | –
Cc1cccc(NC(=O)N2[C@H]3CC[C@@H]2c2cnc(-c4ccccc4)nc2C3)c1 | inconclusive: 0.158 µM [inhibitor, full curve, poor fit] | – | –
CN(C)[S+](=O)([O-])c1ccc2c(c1)OCCN(Cc1cccc(Cl)c1)C2 | inconclusive: 10 µM [inhibitor, single point] | – | –
CCOC(=O)c1cccnc1SCC(=O)N(CC)c1cccc(C)c1 | inconclusive: 7.94 µM [inhibitor, single point] | – | –
CC1CCN(C(=O)c2ccccc2OCC2CCCN(C(=O)c3ccncc3)C2)CC1 (centres undefined) | – | – | inactive: -0.441%
CCOC(=O)c1ccc(NC(=O)c2c(NCc3sccc3C)sc3c2CCC(C)C3)cc1 (centres undefined) | inconclusive: 17.8 µM [inhibitor, single point] | – | –
CN1CCN(C(CNC(=O)C(=O)Nc2ccc(Cl)cc2)c2cccnc2)CC1 (centres undefined) | inconclusive: 11.2 µM [inhibitor, single point] | – | –
COc1cccc([S+](=O)([O-])N2CCC3(CC2)COc2ccccc2NC3=O)c1 | inconclusive: 10 µM [inhibitor, single point] | – | –

Structure (SMILES) | Potency | outcome | activity, negative = inhibition
CCOCCCNC(=O)c1c[nH]c2ccc(S(=O)(=O)N(C)c3ccc(Cl)cc3F)cc2c1=O | inconclusive: 17.8 µM [inhibitor, single point] | – | –
CCOc1ccc(-n2c(SCc3ccccc3)nc3c([nH]c4ccccc43)c2=O)cc1 | – | inactive | –
Cc1ccccc1S(=O)(=O)N1CCN(C2CCN(CCC(C)C)C2=O)CC1 (centres undefined) | inconclusive: 10 µM [inhibitor, single point] | – | –
COC[C@@H]1CN(C(=O)c2ccccc2)C[C@H]1c1nc(C2CC2)no1 | – | – | inactive: -13.5%
O=C1NCCCCCN(C(=O)CCCc2ccccc2)[C@H]2CCC[C@@H]12 | – | – | inactive: -16.1%
CC(C)(C)CN1CCC2(COc3ccncc3S(=O)(=O)N2)C1 (centres undefined) | inconclusive: 0.355 µM [inhibitor, full curve, poor fit] | – | –
Cc1ccc(Sc2ccc(N3CCCC(C(=O)Nc4ccc(F)c(Cl)c4)C3)nn2)cc1 (centres undefined) | inconclusive: 0.355 µM [inhibitor, partial curve] | – | –
COc1cccc(NC(=O)CSc2nc(=O)n(Cc3cccnc3)c3c2CCC3)c1 | – | – | inactive: 12.1%
Cc1cccc2c(=O)cc(CSc3ccccc3NC(=O)C(C)C)[nH]c12 | inconclusive: 6.31 µM [inhibitor, partial curve, poor fit] | – | –
Cc1ccsc1C(=O)NCc1nnc2ccc(-c3ccc(Cl)cc3)nn12 | inconclusive: 0.282 µM [inhibitor, full curve] | – | –
CC1=NS(=O)(=O)N(Cc2ccccc2)C=C1C(=O)OCc1nc(-c2ccc(C)cc2)no1 | inconclusive: 17.8 µM [inhibitor, single point] | – | –
Cc1nnc(-c2cc(-c3cnn(C)c3)ccn2)n1Cc1ccccc1 | – | inactive [at 44.1 µM] | –
CC1CCc2onc(C(=O)Nc3ccc(Cl)cc3)c2C1 (centres undefined) | – | – | inactive: 10.7%
CCCN1C(=O)CCc2cc(NC(=O)NCCCOC)ccc21 | inconclusive: 12.6 µM [inhibitor, single point] | – | –
CC(C)Cc1cnc(-c2cccnc2)[nH]1 | inconclusive: 7.94 µM [inhibitor, partial curve] | – | –
CCc1c(-c2ccccc2)nc2ccccc2c1C(=O)NC(C)c1ccccc1 (centres undefined) | inconclusive: 17.8 µM [inhibitor, single point] | – | –
O=C(CN1CCN(Cc2cnc(-c3ccccn3)nc2)CC1)N1CCCC1 | – | – | inactive: 25.6%
Cn1nc(C(=O)NCCc2noc(-c3ccncc3)n2)c2ccccc21 | – | – | inactive: -19%
CC(C)NC(=O)c1nc(-c2ccc([S+](C)(=O)[O-])cc2)c2ccccn12 | – | – | inconclusive: -185% [inhibitor]
Cc1nc(-c2ccco2)cc([C@H]2CN3CC[C@H]2C[C@@H]3CNCc2ccccc2)n1 | active: 1.12 µM | – | –
COc1cc(OC)cc(C(=O)N[C@@H]2CN(c3ncccn3)C[C@H]2CO)c1 | inconclusive: 14.1 µM [inhibitor, partial curve, poor fit] | – | –
CN1C(=O)c2cccn2CC1CNC(=O)c1cc(-c2ccccc2)n[nH]1 (centres undefined) | inconclusive: 8.91 µM [inhibitor, partial curve, poor fit] | – | –
CC1(c2ccccc2)N(Cc2ccccc2F)C(=O)OC12CCN(c1cccnc1)CC2 (centres undefined) | inconclusive: 3.55 µM [inhibitor, partial curve, poor fit] | – | –

Structure (SMILES) | Potency | outcome | activity, negative = inhibition
O=C(Nc1ccc(-c2cccc(F)c2)cc1)C1CCCN(C(=O)c2ccncc2)C1 (centres undefined) | active: 7.08 µM | – | –
C=CCCC(CN1CCCOCC1)Oc1ccc(C#N)cn1 (centres undefined) | inconclusive: 11.2 µM [inhibitor, partial curve, poor fit] | – | –
Cc1ccc(OCC(=O)c2ccc3c(c2)N(CCCC(=O)N2CCOCC2)C(=O)CO3)c(Cl)c1 | inconclusive: 3.98 µM [inhibitor, single point] | – | –
O=C(NCCCc1nc2ccc(F)cc2[nH]1)C1NCCc2[nH]cnc21 (centres undefined) | – | – | inactive: -6.53%
CN[C@@H](CO)C(=O)NCc1nc(-c2cccc(F)c2)c(-c2ccccn2)[nH]1 | – | – | inactive: -2.53%
CN(C)CCNC(=O)c1nc2nc(-c3ccccc3)c(-c3ccccc3O)cc2n1C | active: 5.62 µM | – | –
c1cc(-c2ccnc3nc(CCC4CCCC4)nn23)ccn1 | inconclusive: 2.51 µM [inhibitor, full curve] | – | –
O=C(C1NCCc2[nH]cnc21)N1CCC(c2nc(-c3ccccc3)no2)CC1 (centres undefined) | – | – | inactive: -15.7%
Clc1cccc(N2CCN(C3CCCN(CCCc4ccccc4)C3)CC2)c1 (centres undefined) | – | inactive | –
Cc1[nH]c(=O)[nH]c(=O)c1CN1CCCC(CCc2ccc(F)cc2F)C1 (centres undefined) | inconclusive: 10 µM [inhibitor, partial curve, poor fit] | – | –
O=C1c2cccn2CC(CNS(=O)(=O)c2ccccc2)N1Cc1ccccc1 (centres undefined) | inconclusive: 17.8 µM [inhibitor, single point] | – | –
CC(C)CCNC(=O)c1ccc2c(c1)CC(=O)N2Cc1ccc(F)cc1 | inconclusive: 1.26 µM [inhibitor, partial curve, poor fit] | – | –
CC(C)(N)C(=O)N1CCCC(N2CCN(Cc3ccc4c(c3)OCO4)CC2)C1 (centres undefined) | inconclusive: 11.2 µM [inhibitor, single point] | – | –
CCCc1noc(-c2ccn3c(CNC(=O)c4ccc(F)cc4Cl)nnc3c2)n1 | active: 3.55 µM | – | –
CC(C)C(=O)N1CCC2(CC1)CCC(O)(CN(C)C)CC2 | – | – | inactive: -12.5%
O=C(c1ccccc1)N1CCc2sc(C(=O)N3CCN(c4ccc(F)cc4)CC3)cc2C1 | inconclusive: 17.8 µM [inhibitor, single point] | – | –
COc1ccc(-c2ccc3c(c2)C(=O)N2CC[C@H](NC(=O)c4cccc(F)c4)[C@H]2C(=O)N3)cc1 | inconclusive: 10 µM [inhibitor, single point] | – | –
COc1ccc(-c2nc(C(C)C)nc3c2CCN(C(=O)Nc2ccccc2)CC3)cc1 | active: 5.01 µM | – | –
c1cc(-c2cc(-c3ccncc3)c3cncn3c2)c2cc[nH]c2c1 | inconclusive: 5.62 µM [inhibitor, single point] | – | –
CCN(CC)c1ccc2cc(-c3nnc(Nc4ccc(C)cc4)s3)c(=O)oc2c1 | – | – | inactive: 65.3%
O=C(Cc1ccc(N(Cc2ccc(F)cc2)C(=O)c2ccco2)cc1)NCc1ccc(F)cc1 | – | – | inactive: -19.1%
CCCS(=O)(=O)N1CCC2(CC1)CN(c1ccccc1)C2=O | – | – | inactive: -9.8%
CC(C)CNC(=O)C1COC2(CCCCC2)N1C(=O)c1cccc(Cl)c1 (centres undefined) | – | – | inactive: -23.2%

From PubChem BioAssay AID1347417 (National Center for Advancing Translational Sciences (NCATS), 2020)
